Assay results taken from FireProtDB (doi:10.1016/0022-2836(81)90253-9).
Where “and” joins values, the source holds several entries; their conditions need not be identical. Equal values may be shown once.

Settings: Sus scrofa, Thermal, DSC, transition: 3, reversible: yes, whole UniProt chain shown
[1] = pH 5.9, sodium cacodylate 5 mM, NaCl 100 mM
[2] = pH 6.5, sodium phosphate 5 mM, NaCl 100 mM
[3] = pH 7.1, sodium phosphate 5 mM, NaCl 10 mM
[4] = pH 7.1, sodium phosphate 5 mM, NaCl 100 mM
[5] = pH 7.5, sodium phosphate 5 mM, NaCl 100 mM

B1: Pepsin A wild type, P00791 (protein)
chain: MKWLLLLSLVVLSECLVKVPLVRKKSLRQNLIKNGKLKDFLKTHKHNPASKYFPEAAALIGDEPLENYLDTEYFGTIGIGTPAQDFTVIFDTGSSNLWVPSVYCSSLACSDHNQFNPDDSSTFEATSQELSITYGTGSMTGILGYDTVQVGGISDTNQIFGLSETEPGSFLYYAPFDGILGLAYPSISASGATPVFDNLWDQGLVSQDLFSVYLSSNDDSGSVVLLGGIDSSYYTGSLNWVPVSVEGYWQITLDSITMDGETIACSGGCQAIVDTGTSLLTGPTSAIANIQSDIGASENSDGEMVISCSSIDSLPDIVFTINGVQYPLSPSAYILQDDDSCTSGFEGMDVPTSSGELWILGDVFIRQYYTVFDRANNKVGLAPVA
With B1 the Tm [1] was 64 °C, the “unfolding enthalpy (calorimetric)” value [1] was 100 kcal/mol and the “unfolding enthalpy (van 't Hoff)” value [1] was 55 kcal/mol. For the same protein, the Tm (pH 5.9, sodium cacodylate 5 mM) was 62 °C and 64 °C, the “unfolding enthalpy (calorimetric)” value (pH 5.9, sodium cacodylate 5 mM) was 167 kcal/mol and 102 kcal/mol and the “unfolding enthalpy (van 't Hoff)” value (pH 5.9, sodium cacodylate 5 mM) was 105 kcal/mol and 55 kcal/mol. The “unfolding enthalpy (calorimetric)” value [2] was 120 kcal/mol and 104 kcal/mol, the “unfolding enthalpy (van 't Hoff)” value [2] was 71 kcal/mol and 55 kcal/mol and the Tm (pH 6.5, sodium phosphate 5 mM) was 50 °C and 55 °C. The “unfolding enthalpy (calorimetric)” value (pH 6.5, sodium phosphate 5 mM) was 130 kcal/mol and 83 kcal/mol, the “unfolding enthalpy (van 't Hoff)” value (pH 6.5, sodium phosphate 5 mM) was 80 kcal/mol and 45 kcal/mol and the “unfolding enthalpy (calorimetric)” value [3] was 99 kcal/mol and 87 kcal/mol. The “unfolding enthalpy (van 't Hoff)” value [3] was 65 kcal/mol and 50 kcal/mol, the “unfolding enthalpy (calorimetric)” value [4] was 97 kcal/mol and the “unfolding enthalpy (van 't Hoff)” value [4] was 47 kcal/mol. The “unfolding enthalpy (calorimetric)” value (pH 7.1, sodium phosphate 5 mM) was 106 kcal/mol and 74 kcal/mol, the “unfolding enthalpy (van 't Hoff)” value (pH 7.1, sodium phosphate 5 mM) was 70 kcal/mol and 46 kcal/mol and the Tm [5] was 60 °C. The “unfolding enthalpy (calorimetric)” value [5] was 92 kcal/mol and the “unfolding enthalpy (van 't Hoff)” value [5] was 46 kcal/mol.
